Test results as given in article PMC6864063, “Molecular basis for the interaction between human choline kinase alpha and the SH3 domain of the c-Src tyrosine kinase” (Scientific Reports, 2019).

Experiments:
[1] = target: T1, c-Src SH3 domain (recombinant, used in SPR) (UniProt P12931-1 fragment); assay: SPR; ChoKα Δ49 proteins immobilised on one CM5 chip, Src SH3 injected in triplicate, 2 min association, 2 min dissociation; two-state induced-fit model, KD from the kinetic rate constants; conditions: both partners purified
[2] = target: T1, c-Src SH3 domain (recombinant, used in …); assay: SPR; SH3 domains immobilised on one CM5 chip, ChoKα injected in triplicate, 0.1 to 30 µM, 2 min, PBS pH 7.5, 30 µL/min; steady-state KD from RUmax; conditions: both partners purified

B1: Choline kinase alpha Δ49 D306A (kinase-dead) (domain or fragment)
chain: not shown
notes: Choline kinase alpha (ChoKα1), human, […], […] with D306A; also called D306A variant of ChoKαΔ49; source: E. coli Rosetta (DE3)pLysS, purified (HisTrap Ni2+ column, S-200 gel filtration); not shown: His6, N-terminal, cleaved; SUMO, N-terminal, cleaved
[1]
  Kd: 1.8 µM

B2: Choline kinase alpha, full-length (FL) wild type (enzyme)
chain: not shown
notes: Choline kinase alpha, unspliced variant ChoKα1, 457 residues, human, […]; full length, up to Val457; Cleaved ChoKα constructs were the probes of the pull-downs; also called ChoKα; ChoKα1; source: E. coli Rosetta (DE3)pLysS, purified (HisTrap Ni2+ column, S-200 gel filtration); not shown: His6, N-terminal, cleaved; SUMO, N-terminal, cleaved
[2]
  Kd: 14.2 µM
